Experimental data published in PubChem BioAssay AID485364 (National Center for Advancing Translational Sciences (NCATS), 2010).
Hit rate of the full screen: of about 360,000 compounds, about 11,000 (3.1%) were called active. This list was built around the results that the source calls inconclusive (neither active nor inactive); the mix of calls is not that of the screen. Calls come from the whole dose curve; as a rule, active = well fitted inhibition curve with a large enough effect; inconclusive = small, poorly fitted or top-dose-only effect; inactive = no such curve, though single readings can be large or run the other way. No potency is given beside an inconclusive call; the fits are too rough.

What follows are compounds tested against Schistosoma mansoni thioredoxin glutathione reductase (TGR) (UniProt Q962Y6) (assay: qHTS Assay for the Inhibitors of Schistosoma Mansoni Peroxiredoxins). Conditions: purified TGR, DTNB reduction, TNB absorbance 405 nm; activity change, negative = inhibition: at 114 µM (top of the series) unless noted.
Procedure, shortened: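 First, TGR (20 nM dispensed) and NADPH were mixed with compound. Second, a 15 min room-temperature incubation followed. Third, further NADPH and then DTNB were added to start the reaction. Finally, TNB absorbance was monitored kinetically.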
% is set by controls: 0 for no effect and ±100 for the full control effect; potency is the fitted concentration of half-maximal effect; tags give direction and shape of the fitted curve.
Note: nearly all actives have a fitted effect of over 60% in size.

Row | Compound | Potency | activity change, negative = inhibition
1 | Cn1cncc1C#Cc1ccc2cc(CCO)oc(=O)c2c1 | active: 11.2 µM | 
2 | CCCSc1nc(O)c(C2OC(=O)c3c2ccc(OC)c3OC)c(=O)n1C (configuration not stated) | inconclusive [inhibitor, full curve] | 
3 | CCOC(=O)c1ccc(-c2ccc(/C=N/NC(=O)CN(c3ccccc3Cl)S(C)(=O)=O)o2)cc1 |  | inactive: -1.42%
4 | Cc1ccc(CNC(=O)C(=O)NCC(c2ccco2)S(=O)(=O)c2ccc(C)cc2)cc1 (configuration not stated) |  | inactive: -23.1%
5 | COC(=O)c1ccc(C(=O)OC)c(NC(=O)CCc2ccc(C)o2)c1 | inconclusive [inhibitor, partial curve] | 
6 | COC1CCN(C(=O)CC2C(=O)NCCN2CC(C)(C)C)CC1 (configuration not stated) | inconclusive [inhibitor, partial curve] | 
7 | Cn1ncc2c(Nc3ccc(Cl)c(Cl)c3)ncnc21 |  | inactive: 14.3%
8 | CCCCNC(=O)c1c(N)n(Cc2ccc3c(c2)OCO3)c2nc3ccccc3nc12 | inconclusive [inhibitor, single point] | 
9 | O=C(COC(=O)c1ccc(Cl)cc1[N+](=O)[O-])NC(=O)c1ccccc1 | inconclusive [inhibitor, single point] | 
10 | Cc1cc(C(=O)Cn2cnc3ccccc3c2=O)c(C)n1C1CC1 |  | inactive: -14.6%
11 | Oc1ccc(C=NC2CCCCC2)cc1 | inconclusive [inhibitor, partial curve] | 
12 | CC(=O)c1ccc(NS(=O)(=O)c2cccc(C(=O)Nc3ccccc3C(=O)O)c2)cc1 | inconclusive [inhibitor, partial curve, poor fit] | 
13 | O=C(NCCO)/C(=C\c1ccco1)NC(=O)c1ccco1 | inconclusive [inhibitor, full curve, poor fit] | 
14 | COc1ccc2c(c1OC)c(=O)n1c3ccc(OC(C)C(=O)NCCCN4CCOCC4)cc3c3ccnc2c31 (configuration not stated) | inconclusive [inhibitor, partial curve] | 
15 | Cc1ccc(NC(CC(=O)c2ccccc2)C(=O)O)cc1Cl (configuration not stated) | active: 0.794 µM | 
16 | c1ccc(-c2ccccc2OCCCCn2ccnc2)cc1 | inconclusive [inhibitor, single point] | 
17 | CCc1ccc(N2C(=O)NC(=O)C(Cc3ccc(OC)cc3OC)C2=O)cc1 (configuration not stated) | inconclusive [inhibitor, partial curve] | 
18 | COC(=O)COc1ccc2c(=O)c(Oc3ccccc3)c(C)oc2c1 | inconclusive [inhibitor, single point] | 
19 | O=C(/C=C/c1c(Cl)cccc1Cl)NCCc1ccccc1 |  | inactive: 13.6%

Row | Compound | Potency | activity change, negative = inhibition
20 | O=C(CCn1nnc2ccccc21)N/N=C\Cc1ccccc1 |  | inactive: -5.05%
21 | CC(OC(=O)/C=C/c1cccc(F)c1)C(=O)NC1CCCCC1C (configuration not stated) |  | inactive: -47.5%
22 | CN(Cc1ccco1)c1ncnc2ccc(-c3cccnc3)cc12 | inconclusive [inhibitor, partial curve] | 
23 | COc1ccc(N2CCN(C(CNC(=O)C(=O)NC3CC3)c3ccco3)CC2)cc1 (configuration not stated) |  | inactive: 0.555%
24 | CCOc1c(Cl)cc(CNCc2ccccn2)cc1OC |  | inactive: 3.29%
25 | O=C1c2cccnc2C(=O)N1Cc1ccc(S(=O)(=O)NCc2ccco2)s1 | inconclusive [inhibitor, partial curve] | 
26 | Cc1c(-c2nnc(SCC(=O)Nc3ccc(Br)cc3)o2)nnn1-c1ccc(F)cc1 |  | inactive: 2.34%
27 | O=C(Cn1c(=O)n(Cc2ccc(C(=O)NCc3ccc4c(c3)OCO4)cc2)c(=O)c2ccccc21)Nc1ccc(F)cc1F | inconclusive [inhibitor, single point] | 
28 | COc1ccc(C(=O)NC(=S)Nc2cccc3cc(O)ccc23)cc1OC | inconclusive [inhibitor, partial curve] | 
29 | O=C1CC(=O)N(c2ccc(Cl)cc2)C(=O)N1 | inconclusive [inhibitor, full curve, poor fit] | 
30 | CCOC(=O)COc1ccc(/C=C2\C(=O)NC(=S)N(c3ccc(OC)cc3)C2=O)cc1OC | active: 14.1 µM | 
31 | CCOc1ccc(/C(O)=C2/C(=O)C(=O)N(CCN(CC)CC)C2c2cccs2)cc1 (configuration not stated) | active: 22.4 µM | 
32 | COc1cccc(/C(O)=C2/C(=O)C(=O)N(CCN(C)C)C2c2ccccn2)c1 (configuration not stated) | inconclusive [inhibitor, partial curve] | 
33 | COc1cc2c(cc1OC)CN(C(=O)CCNS(=O)(=O)c1ccc(Br)cc1)CC2 |  | inactive: -12.1%
34 | CCCCNC(=O)CN1C(=O)c2c(c3ccccc3n2C)C1c1ccc(OC)cc1 (configuration not stated) |  | inactive: 17%
35 | CCOc1ccc(-n2c(C)nc3cc(C(=O)NCc4ccco4)ccc32)cc1 | inconclusive [inhibitor, full curve, poor fit] | 
36 | CN=C1S/C(=C\c2ccc(Sc3ccc(Cl)cc3)o2)C(=O)N1C | inconclusive [inhibitor, partial curve] | 
37 | O=C(NCCc1csc(-c2cccnc2)n1)c1ccc(Br)o1 | active: 28.2 µM | 
